According to PubChem BioAssay (NCATS):
Values joined by “and” are separate entries in the source; they are usually repeats but may differ in a detail not shown here. Identical values can stand only once. Inconclusive means that the source gave no clear call. Such entries were picked first, then a sample of the others. A potency beside an inconclusive call is a rough fit, not a confirmed value. Active and inactive are the calls of the source. The call rests on the fitted dose curve; in most records, active means well fitted curve in the direction sought with a large enough effect; inconclusive means small, poorly fitted or top-dose-only effect, or another doubt; inactive means no such curve, though single readings can be large; an effect the other way counts as inactive or inconclusive.

Assays:
[1] = qHTS for Inhibitors of Plasmodium falciparum (DD2) proliferation (AID 504314); details: P. falciparum Dd2 in erythrocytes, SYBR Green growth, 72 h; series mostly up to 6.11 µM
Summary of the method: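 SYBR Green growth assay: 72 h compound exposure of infected red cells (2.5% hematocrit, 0.3% parasitemia), then lysis and overnight dye staining, fluorescence 485/535 nm. Values scaled between DMSO and 0.29 uM artemisinin controls.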

[2] = qHTS for Inhibitors of Plasmodium falciparum (GB4) proliferation (AID 504315); further: nearly all actives have a fitted effect of over 50% in size; details: P. falciparum GB4 in erythrocytes, SYBR Green DNA, 72 h; activity change, negative = inhibition: at 6.7 µM (top of the series)
Summary of the method: (§1)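 Parasite growth measured as SYBR Green DNA fluorescence (ex 485, em 535 nm) after overnight lysis following 72 h culture at 37 °C, 0.3% parasitemia, 2.5% hematocrit. Values normalized against DMSO and 0.29 uM artemisinin controls, with plate-stack correction.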

[3] = qHTS for Inhibitors of Plasmodium falciparum (7G8) proliferation (AID 504316); further: nearly all actives have a fitted effect of over 65% in size; details: P. falciparum 7G8 in erythrocytes, SYBR Green DNA, 72 h; activity change, negative = inhibition: at 6.7 µM (top of the series)
Summary of the method: as §1

[4] = qHTS for Inhibitors of Plasmodium falciparum (HB3) proliferation (AID 504318); further: nearly all actives have a fitted effect of over 60% in size; details: P. falciparum HB3 in erythrocytes, SYBR Green DNA, 72 h; activity change, negative = inhibition: at 7.21 µM (top of the series)
Summary of the method: as §1

[5] = qHTS for Inhibitors of Plasmodium falciparum (CP250) proliferation (AID 504320)
Summary of the method: as §1
Potency means the concentration at half of the fitted maximal effect; tags describe the fitted curve by direction and shape.

## C=C(C)[C@@H]1CC2=C(OC)C(CC=C(C)C)(CC=C(C)C)C(=O)C(C(=O)c3ccccc3)=C2O1
[1]
  Potency: inconclusive: 1.5 µM [inhibitor, partial curve, poor fit]
[2]
  Potency: inconclusive: 1.69 µM [inhibitor, partial curve, poor fit]
[3]
  Potency: active: 1.69 µM
[4]
  Potency: inconclusive: 1.51 µM [inhibitor, partial curve]
[5]
  Potency: inconclusive: 4.26 µM [inhibitor, single point]

## COC(=O)C1=C(C)N(Cc2ccccc2)C(=NCC(C)C)NC1c1cccc(C(F)(F)F)c1 (stereo not given)
[1]
  Potency: inconclusive: 1.5 µM [inhibitor, partial curve]
[2]
  Potency: inconclusive: 0.757 µM [inhibitor, partial curve]
[3]
  Potency: inconclusive: 0.426 µM [inhibitor, partial curve]
[4]
  Potency: inconclusive: 1.9 µM [inhibitor, partial curve]
[5]
  Potency: inconclusive: 1.51 µM [inhibitor, single point]

## COC(=O)C1=C(C)N(Cc2ccccc2)C(=NCC2CC2)NC1c1ccccc1 (stereo not given)
[1]
  Potency: inconclusive: 1.69 µM [inhibitor, partial curve] and inconclusive: 1.89 µM [inhibitor, single point]
[2]
  Potency: active: 1.69 µM
[3]
  Potency: inconclusive: 1.51 µM [inhibitor, single point] and inconclusive: 2.13 µM [inhibitor, single point]
[4]
  Potency: inconclusive: 1.9 µM [inhibitor, single point] and inconclusive: 3.01 µM [inhibitor, single point]
[5]
  Potency: inconclusive: 1.69 µM [inhibitor, single point] and inconclusive: 3.01 µM [inhibitor, single point]
